The text below walks through data of a collection of fitness landscapes (doi:10.1016/j.celrep.2020.107928).

The full ranking holds about 81,000 sequences; the median of “one-hybrid fitness for binding NBS DNA” is about -0.1, and the highest 2% start at about 0.36. The list shows a part of the results. Some results are limits rather than exact numbers.

To fix the notation:
B1: Caulobacter ParB omega fusion; a variant is named by its letters at X, in order, B8GW30 (parent)
chain: MESVVVGEPGMSEGRRGLGRGLSALLGEVDAAPAQAPGEQLGGSREAPIEILQRNPDQPRRTFREEDLEDLSNSIREKGVLQPILVRPSPDTAGEYQIVAGERAWRAAQRAGLKTVPIMVRELDDLAVLEIGIIENVQRADLNVLEEALSYKVLMEKFERTQENIAQTIGKSXSHVANXMRLLXLPDEVQSYLVSGELTAXHARAIAAAADPVALAKQIIEGGLSVRETEALARKAPNLSAGKSKGGRPPRVKDTDTQALESDLSSVLGLDVSIDHRGSTGTLTITYATLEQLDDLCNRLTRGI

This assay covers variants of B1. Description: one-hybrid fitness for binding NBS DNA (the Noc-binding site; scaled: cognate 1, non-cognate 0); higher = stronger binding. The note with it: with NBS DNA site. In outline: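 On M9-minus-histidine containing 0.1 mM IPTG and 5 mM 3-AT, E. coli USO cells with a HIS3 reporter, site 19 bp from the promoter, grew 48 hours at 37°C to select Caulobacter ParB libraries randomised at four specificity codons. Plasmids from before and after were Illumina-sequenced, with three replicate libraries pooled and variants under 10 reads left out. Fitness is the log change in variant-to-wild-type read ratio, rescaled against cognate and non-cognate.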
Consider DRAC, for which the “one-hybrid fitness for binding NBS DNA” value was ≤ 0.2.
As for QQLL, the figure is ≤ 0.2; as for FQHS, ≤ 0.2; as for ARNT, ≤ 0.2.
As for YGQR, the figure is ≤ 0.2; as for LHPL, ≤ 0.2; as for LSQS, ≤ 0.2.
Take WPSP: the “one-hybrid fitness for binding NBS DNA” value was ≤ 0.2.
As for KKTE, the figure is ≤ 0.2; as for TYRC, ≤ 0.2.
As for PHID, the figure is ≤ 0.2; as for TPLD, ≤ 0.2; as for RQTQ, ≤ 0.2.
The figure for DHLM is ≤ 0.2; for RLQW it is ≤ 0.2; for MCLG it is ≤ 0.2.
For SPDG, the “one-hybrid fitness for binding NBS DNA” value was ≤ 0.2.
The figure for THDG is ≤ 0.2.
The figure for QTAR is 0.768; for QKQD it is ≤ 0.2.
Consider QMKT, for which the “one-hybrid fitness for binding NBS DNA” value amounted to 0.75.
With PECR, the “one-hybrid fitness for binding NBS DNA” value is ≤ 0.2.
As for IAII, the figure is ≤ 0.2.
The figure for HTIE is ≤ 0.2; for KNNR it is ≤ 0.2; for KCKS it is ≤ 0.2.
The figure for WIRE is ≤ 0.2; for CLMY it is ≤ 0.2.
PQKV: the “one-hybrid fitness for binding NBS DNA” value is ≤ 0.2.
The figure for VYPH is ≤ 0.2; for SSLN it is ≤ 0.2; for CRHH it is ≤ 0.2.
The figure for MSGC is ≤ 0.2.
The figure for LPWT is ≤ 0.2.
With SPKN, the “one-hybrid fitness for binding NBS DNA” value was ≤ 0.2.
The figure for DGKW is ≤ 0.2; for FQTL it is ≤ 0.2; for SYDG it is ≤ 0.2.
The figure for QQST is 0.516; for VVYG it is ≤ 0.2; for YAYA it is ≤ 0.2.
Consider GFKC, for which the “one-hybrid fitness for binding NBS DNA” value was ≤ 0.2.
In the case of HLTY, the “one-hybrid fitness for binding NBS DNA” value is ≤ 0.2.
In the case of TKLA, the “one-hybrid fitness for binding NBS DNA” value was ≤ 0.2.
The figure for FSYA is ≤ 0.2; for DISC it is ≤ 0.2; for RRAA it is 0.664.
As for YLLS, the figure is ≤ 0.2; as for TWAK, ≤ 0.2; as for KVFS, ≤ 0.2.
On to FKHS, for which the “one-hybrid fitness for binding NBS DNA” value is ≤ 0.2.
For the variant LSAF, the “one-hybrid fitness for binding NBS DNA” value was ≤ 0.2.
In the case of FNRY, the “one-hybrid fitness for binding NBS DNA” value is ≤ 0.2.
Regarding PVQI, the “one-hybrid fitness for binding NBS DNA” value is ≤ 0.2.
As to HFMR, the “one-hybrid fitness for binding NBS DNA” value was ≤ 0.2.
As for PSEH, the “one-hybrid fitness for binding NBS DNA” value is ≤ 0.2.
For the variant SAQE, the “one-hybrid fitness for binding NBS DNA” value was ≤ 0.2.
Turning to TIRR, the “one-hybrid fitness for binding NBS DNA” value was ≤ 0.2.
As to HQMM, the “one-hybrid fitness for binding NBS DNA” value was ≤ 0.2.
The figure for CSMT is ≤ 0.2; for IKER it is ≤ 0.2.
The figure for RHGH is ≤ 0.2.
As for TDAV, the figure is ≤ 0.2; as for PSHR, ≤ 0.2.
With HPQT, the “one-hybrid fitness for binding NBS DNA” value is ≤ 0.2.
As for QHCS, the “one-hybrid fitness for binding NBS DNA” value turned out to be 0.279.
As for TNDT, the figure is ≤ 0.2.
Turning to EEVG, the “one-hybrid fitness for binding NBS DNA” value was ≤ 0.2.
RTLR: the “one-hybrid fitness for binding NBS DNA” value came out at 0.461.
As for ETLK, the figure is ≤ 0.2.
Consider NELS, for which the “one-hybrid fitness for binding NBS DNA” value is ≤ 0.2.
With KVQA, the “one-hybrid fitness for binding NBS DNA” value is ≤ 0.2.
Turning to GRFC, the “one-hybrid fitness for binding NBS DNA” value was ≤ 0.2.
The figure for FSKF is ≤ 0.2; for SFRL it is ≤ 0.2.
As to TGGC, the “one-hybrid fitness for binding NBS DNA” value is ≤ 0.2.
In the case of LPPV, the “one-hybrid fitness for binding NBS DNA” value was ≤ 0.2.
As for TYST, the figure is ≤ 0.2; as for RGIG, ≤ 0.2; as for VQRH, ≤ 0.2.
Regarding AALY, the “one-hybrid fitness for binding NBS DNA” value was ≤ 0.2.
As for LMVA, the figure is ≤ 0.2; as for NLIG, ≤ 0.2; as for LQRH, ≤ 0.2.
